The labels stand for the following.
B1: PhoQ; a variant is named by its letters at X, in order, P23837 (parent)
chain: MKKLLRLFFPLSLRVRFLLATAAVVLVLSLAYGMVALIGYSVSFDKTTFRLLRGESNLFYTLAKWENNKLHVELPENIDKQSPTMTLIYDENGQLLWAQRDVPWLMKMIQPDWLKSNGFHEIEADVNDTSLLLSGDHSIQQQLQEVREDDDDAEMTHSVAVNVYPATSRMPKLTIVVVDTIPVELKSSYMVWSWFIYVLSANLLLVIPLLWVAAWWSLRPIEALAKEVRELEEHNRELLNPATTRELTSLVRNLNRLLKSERERYDKYRTTLTDLTHSLKTPLXXLQXXLRSLRSEKMSVSDAEPVMLEQISRISQQIGYYLHRASMRGGTLLSRELHPVAPLLDNLTSALNKVYQRKGVNISLDISPEISFVGEQNDFVEVMGNVLDNACKYCLEFVEISARQTDEHLYIVVEDDGPGIPLSKREVIFDRGQRVDTLRPGQGVGLAVAREITEQYEGKIVAGESMLGGARMEVIFGRQHSAPKDE

The text below walks through data of a collection of fitness landscapes (doi:10.1126/science.1257360).

The other results are listed elsewhere or left out.

Variants of B1 are the subject of the experiment. The experiment can be described thus: enrichment ratio after two sorts for PhoP signalling (ratio (wild type AVST 3.29)); higher = more functional. The note with it: with PhoP (E. coli).
Consider HSEV, for which the enrichment ratio was not above 0.25.
Turning to NVCW, the enrichment ratio is not above 0.25.
The same measure for VFNH: not above 0.25; for MVAL: 11.3; for NNRM: not above 0.25.
Regarding ETWD, the enrichment ratio is not above 0.25.
The same measure for GYYY: not above 0.25; for SGNL: 0.304.
For KFII, the enrichment ratio is not above 0.25.
For HKNH, the enrichment ratio was not above 0.25.
The same measure for SQLF: 12.6; for HHYV: not above 0.25; for KQAI: not above 0.25.
For DYYA, the enrichment ratio was not above 0.25.
As to HISV, the enrichment ratio is not above 0.25.
For TDNT, the enrichment ratio is 9.22.
EIIT: the enrichment ratio is not above 0.25.
The same measure for FSET: not above 0.25; for WHST: not above 0.25; for YIFE: not above 0.25.
Regarding ATFY, the enrichment ratio was not above 0.25.
As for CMPI, the enrichment ratio was not above 0.25.
Regarding IWIA, the enrichment ratio was not above 0.25.
In the case of LSQY, the enrichment ratio was not above 0.25.
The same measure for MTKG: not above 0.25; for ILPG: not above 0.25; for FMRV: not above 0.25.
On to DGLY, for which the enrichment ratio was not above 0.25.
The same measure for MKNP: not above 0.25.
The same measure for EDYK: not above 0.25.
On to VMVA, for which the enrichment ratio is not above 0.25.
For the variant PRMC, the enrichment ratio was not above 0.25.
The same measure for QRAH: not above 0.25; for MMAV: 5.57.
Regarding EFGT, the enrichment ratio was not above 0.25.
In the case of HDNS, the enrichment ratio is not above 0.25.
KQDY: the enrichment ratio was not above 0.25.
Regarding LNVF, the enrichment ratio was not above 0.25.
As to GDCR, the enrichment ratio was not above 0.25.
Consider NPEG, for which the enrichment ratio is not above 0.25.
The same measure for IYGP: not above 0.25.
Turning to PVNK, the enrichment ratio was not above 0.25.
For the variant THNS, the enrichment ratio is 11.
For AYYH, the enrichment ratio is not above 0.25.
With HVRA, the enrichment ratio is not above 0.25.
As to ANQY, the enrichment ratio was determined as 3.3.
PKEE: the enrichment ratio was not above 0.25.
As for WLKM, the enrichment ratio is not above 0.25.
In the case of MKYN, the enrichment ratio is not above 0.25.
Regarding FPAQ, the enrichment ratio was not above 0.25.
For the variant QCDF, the enrichment ratio is not above 0.25.
Take KRWM: the enrichment ratio is not above 0.25.
MNCH: the enrichment ratio is not above 0.25.
As for YHAF, the enrichment ratio is not above 0.25.
For HHDS, the enrichment ratio is not above 0.25.
On to WRPF, for which the enrichment ratio was not above 0.25.
The same measure for EARY: not above 0.25; for ECFH: not above 0.25.
Regarding PCHR, the enrichment ratio is not above 0.25.
For CFPP, the enrichment ratio was not above 0.25.
CLFR: the enrichment ratio is not above 0.25.
In the case of WDTK, the enrichment ratio is not above 0.25.
As to TTIK, the enrichment ratio is not above 0.25.
As to VSYQ, the enrichment ratio is not above 0.25.
The same measure for MEFA: not above 0.25; for QFVG: not above 0.25.
The same measure for NDAG: not above 0.25; for HMDR: not above 0.25.
Consider HFMP, for which the enrichment ratio is not above 0.25.
As to SLGM, the enrichment ratio is 6.71.
For EMTK, the enrichment ratio is not above 0.25.
For TFVH, the enrichment ratio is not above 0.25.
For WITK, the enrichment ratio was not above 0.25.
Take NRMS: the enrichment ratio was not above 0.25.
In the case of QRHS, the enrichment ratio was not above 0.25.
With FWAA, the enrichment ratio was not above 0.25.
Take TQWD: the enrichment ratio amounted to 7.23.
For the variant HKDQ, the enrichment ratio is not above 0.25.
For the variant TDVV, the enrichment ratio came out at 3.63.
The same measure for NEYA: not above 0.25.
Consider AFMC, for which the enrichment ratio is not above 0.25.
The same measure for LHAR: not above 0.25; for HLLF: not above 0.25.
APKD: the enrichment ratio was not above 0.25.
With YFYR, the enrichment ratio is not above 0.25.
As for KSFS, the enrichment ratio is not above 0.25.
The same measure for TVSG: 20.3; for REVN: not above 0.25; for LVGQ: not above 0.25.
For the variant NWLA, the enrichment ratio is not above 0.25.
The same measure for RIPA: not above 0.25; for LKTR: not above 0.25.
The same measure for TFPI: not above 0.25.
Take DRYG: the enrichment ratio was not above 0.25.
Regarding EETH, the enrichment ratio is not above 0.25.
The same measure for PMGM: not above 0.25; for HCRT: not above 0.25.
Take WAWR: the enrichment ratio is not above 0.25.
In the case of GCRY, the enrichment ratio is not above 0.25.
Take NFEM: the enrichment ratio was not above 0.25.
As for IFKC, the enrichment ratio was not above 0.25.
The same measure for IMQM: not above 0.25; for DLWI: not above 0.25; for ASFK: not above 0.25.
With YFWT, the enrichment ratio is not above 0.25.
Consider YWTH, for which the enrichment ratio was not above 0.25.
As for GYRY, the enrichment ratio is not above 0.25.
SHQR: the enrichment ratio was not above 0.25.
Regarding PDRT, the enrichment ratio is not above 0.25.
In the case of HPHD, the enrichment ratio is not above 0.25.
The same measure for LEGR: not above 0.25; for GLSP: not above 0.25.
The same measure for TEHA: not above 0.25.
As to NRWA, the enrichment ratio turned out to be 0.871.
Regarding YAAI, the enrichment ratio is not above 0.25.
The same measure for HIYV: not above 0.25.
Turning to FSFR, the enrichment ratio is not above 0.25.
On to HYIM, for which the enrichment ratio is not above 0.25.
On to MVGF, for which the enrichment ratio worked out at 5.73.
Take QSCK: the enrichment ratio is not above 0.25.
In the case of EGNH, the enrichment ratio is not above 0.25.
For the variant QGNH, the enrichment ratio was not above 0.25.
With PRHD, the enrichment ratio is not above 0.25.
The same measure for IHWL: not above 0.25.
As to RNME, the enrichment ratio was not above 0.25.
VAVK: the enrichment ratio is not above 0.25.
As to NGPC, the enrichment ratio was found to be 0.99.
Consider SDVV, for which the enrichment ratio was 6.28.
With DIAY, the enrichment ratio is not above 0.25.
The same measure for IGTT: not above 0.25; for LNFH: not above 0.25.
With VNPP, the enrichment ratio is not above 0.25.
Turning to HKQF, the enrichment ratio is not above 0.25.
WRWQ: the enrichment ratio is not above 0.25.
The same measure for LNTR: not above 0.25; for TDSV: 10; for QITW: not above 0.25.
Regarding DKTN, the enrichment ratio was not above 0.25.
On to TINT, for which the enrichment ratio turned out to be 4.95.
Take HSKN: the enrichment ratio is not above 0.25.
Regarding YDMD, the enrichment ratio is not above 0.25.
Consider TYVH, for which the enrichment ratio was not above 0.25.
The same measure for EHCF: not above 0.25; for IKDN: not above 0.25; for CHVF: not above 0.25.
Take TISA: the enrichment ratio was found to be 10.6.
For the variant IMQC, the enrichment ratio is not above 0.25.
Regarding PNCK, the enrichment ratio was not above 0.25.
For the variant REKL, the enrichment ratio was not above 0.25.
Regarding VKSD, the enrichment ratio is not above 0.25.
RAVF: the enrichment ratio was not above 0.25.
Turning to FLMR, the enrichment ratio is not above 0.25.
On to SQCQ, for which the enrichment ratio amounted to 3.73.
